About 6,500 (4.3%) of roughly 150,000 compounds were called active. Inconclusive means that the source gave no clear call. Such entries were picked first, then a sample of the others. Calls come from the whole dose curve; as a rule, active = well fitted inhibition curve with a large enough effect (not every such curve was filed as active); inconclusive = small, poorly fitted or top-dose-only effect, or another doubt; inactive = no such curve, though single readings can be large or run the other way. Potencies of inconclusive entries are left out as doubtful fits.
target: 15-hydroxyprostaglandin dehydrogenase [NAD(+)] (Homo sapiens) (UniProt P15428); assay: qHTS Assay for Inhibitors of HPGD (15-Hydroxyprostaglandin Dehydrogenase); details: purified HPGD, NADH fluorescence kinetic, PGE2 substrate; activity change, negative = inhibition: stronger effect = lower value
UniProt P15428, sequence (P15428 whole entry, looked up): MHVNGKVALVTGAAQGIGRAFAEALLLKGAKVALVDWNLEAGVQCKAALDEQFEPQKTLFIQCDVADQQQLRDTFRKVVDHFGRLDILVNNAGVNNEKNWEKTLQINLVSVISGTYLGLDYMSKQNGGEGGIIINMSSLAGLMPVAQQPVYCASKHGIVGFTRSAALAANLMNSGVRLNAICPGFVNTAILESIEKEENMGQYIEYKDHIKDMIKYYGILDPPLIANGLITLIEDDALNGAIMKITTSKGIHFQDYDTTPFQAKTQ
Summary of the method: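 20 nM HPGD preincubated 15 min at room temperature with compound in 50 mM Tris-HCl pH 8, 0.01% Tween 20. Started with 1 mM NAD+ and 30 uM prostaglandin E2; NADH fluorescence (360/450 nm) read 5 times over 30-s intervals, last minus first.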
% is set by controls: 0 for no effect and ±100 for the full control effect; potency is the fitted concentration of half-maximal effect; tags give direction and shape of the fitted curve.

| SMILES | activity change, negative = inhibition | Potency |
| --- | --- | --- |
| COC(=O)[C@H](C)NC(=O)NCc1ccco1 | inactive: -1.78% | – |
| Cc1cccn2c(=O)c(/C=N/O)c(N3CCCCC3)nc12 | – | active: 2 µM |
| CCOC(=O)c1ccc(NC(=O)CC2SCCNC2=O)cc1 (stereo not drawn) | inactive: -4.12% | – |
| COC(=O)c1ccc(/C=C/c2ccc3cccc(OC(C)=O)c3n2)cc1 | – | inconclusive [inhibitor, partial curve] |
| CCOC(=O)c1c(N)sc(N)c1C(=O)OCC | – | active: 8.91 µM |
| COc1ccc(C(=O)Nc2ccccc2C(=O)NC(Cc2ccc(O)cc2)C(=O)NNC(=O)c2ccccc2Cl)cc1 (stereo not drawn) | – | inconclusive [inhibitor, partial curve] |
| CCOC(=O)c1c(NC(=O)OC)sc(C(=O)N(CC)CC)c1C | – | active: 28.2 µM |
| Cc1cccc(NS(=O)(=O)c2cccs2)n1 | – | inconclusive [inhibitor, partial curve] |
| CCCCN(C)Cc1c(C)[nH]c2ccc(OCC)cc2c1=O | – | inconclusive [inhibitor, single point] |
| CC(NC(=O)c1cccs1)c1ccc2c(c1)OCO2 (stereo not drawn) | inactive: -19.8% | – |
| CCOC(=O)COc1c(OC)cc(Cl)cc1C1Nc2ccccc2C(=O)N1c1ccc(F)cc1 (stereo not drawn) | – | inconclusive [inhibitor, partial curve] |
| CCCCNC(=O)c1onc(CSc2ccccc2C)c1C(=O)O | inactive: -16.7% | – |
| c1ccc(-c2ccc(-c3nc(-c4cccnc4)no3)cc2)cc1 | – | inconclusive [inhibitor, partial curve] |
| CCCCN1C(=O)C2(NNc3ccccc3O2)c2ccccc21 (stereo not drawn) | – | active: 31.6 µM |
| COc1ccc(CCSc2nnc(C3CCCCC3)n2N)cc1 | – | active: 20 µM |
| CCC(=O)N(Cc1cc(=O)[nH]c2ccccc12)c1cccc(C)c1 | – | inconclusive [inhibitor, single point] |
| CN(C)c1ccc(-c2nc(N(C)C)c3ccccc3n2)cc1 | – | inconclusive [inhibitor, partial curve] |
| CC(=O)N1CC(c2ccccc2)C(c2ccc(Cl)cc2)=N1 (stereo not drawn) | – | inconclusive [inhibitor, single point] |
| CC1CCN(C(=O)c2ccc(SCc3ccccc3F)c([N+](=O)[O-])c2)CC1 | – | active: 25.1 µM |
| Nc1nc2c(c(=O)[nH]1)N=C(CNc1ccc(C(=O)NC(CCC(=O)O)C(=O)O)cc1)CN2 (stereo not drawn) | – | inconclusive [inhibitor, partial curve] |
| Cc1ccc(N2CCN(C(=S)c3ccc(N(C)C)cc3)CC2)cc1 | – | active: 25.1 µM |
| O=C(Oc1ccc(OC(=O)C2CCC2)cc1)C1CCC1 | inactive: -3.41% | – |
| Cn1cc(-c2nnc(-c3ccccc3)o2)c2ccccc21 | – | inconclusive [inhibitor, partial curve] |
| N#Cc1cc(S(=O)(=O)c2ccccc2)c(N)[nH]c1=O | – | inconclusive [inhibitor, partial curve] |

| SMILES | activity change, negative = inhibition | Potency |
| --- | --- | --- |
| CCN(CC)Cc1c(O)ccc2occ(C(=O)c3ccc(OC)cc3)c12 | inactive: -15.8% | – |
| Cc1c(OC(=O)CNC(=O)OC(C)(C)C)ccc2c3c(c(=O)oc12)CCC3 | – | inconclusive [inhibitor, partial curve] |
| COc1ncc2nc(C)c(=O)n(C[C@H]3CCCO3)c2n1 | inactive: -9.32% | – |
| COc1ccc(/C=C/c2noc(-c3ccccc3O)n2)cc1 | – | inconclusive [inhibitor, partial curve] |
| CCCn1c(SCC(=O)N2c3ccccc3CC2C)nnc1-c1ccco1 (stereo not drawn) | inactive: -10.1% | – |
| CCOC(=O)c1c(-c2ccco2)csc1NC(=O)CSc1nnc(N)s1 | inactive: -17.9% | – |
| Clc1ccc(-n2ncc3c(NCc4ccc5c(c4)OCO5)ncnc32)cc1 | – | inconclusive [inhibitor, partial curve] |
| O=[N+]([O-])c1cc(/C=N\Nc2nccs2)ccc1O | – | active: 8.91 µM |
| C/C(=N\NC(=O)C(=O)Nc1ccc(C)c(Cl)c1)c1ccncc1 | inactive: -18.7% | – |
| Cc1cc(C)c2cc(C#N)c(SCC(=O)NCC3CCCO3)nc2c1 (stereo not drawn) | inactive: -6.95% | – |
| COc1ccc(OC)c(N(CC(=O)Nc2cccnc2)S(=O)(=O)c2ccccc2)c1 | – | active: 7.94 µM |
| COc1cc(OC)c(C(=O)Nc2ccc(S(=O)(=O)Nc3ncccn3)cc2)cc1OC | – | inconclusive [inhibitor, partial curve] |
| COC(=O)c1cc2c(C)nn(-c3ccccc3)c2s1 | – | inconclusive [inhibitor, single point] |
| O=C(Cn1c2ccccc2c(=O)c2ccccc21)Nc1cccc(F)c1 | – | inconclusive [inhibitor, partial curve] |
| Cc1ccc(CSc2nc3ccccc3cc2C=O)cc1 | – | active: 5.01 µM |
| N#CCSc1nc2cc(C(=O)N3CCCC3)ccc2c(=O)n1Cc1ccccc1 | inactive: -12.6% | – |
| O=S(=O)(NC1CCCC1)c1cccc(-c2nnc(-c3ccccc3)o2)c1 | – | inconclusive [inhibitor, partial curve] |
| O=C(Oc1cccc(NC(=O)c2ccco2)c1)c1ccc(Br)c(S(=O)(=O)N2CCCCC2)c1 | – | inconclusive [inhibitor, single point] |
| CN(C)c1ccnc(-n2cccc2/C=N/OCc2cccc(F)c2)c1C#N | – | inconclusive [inhibitor, single point] |
| COc1cccc(C2=NOC(C(=O)Nc3ccc(OC)c(OC)c3)C2)c1 (stereo not drawn) | inactive: -13.1% | – |
| Nc1c(C(=O)NCCN2CCOCC2)c2nc3ccccc3nc2n1CCc1ccccc1 | – | inconclusive [inhibitor, partial curve] |
| CCOC(=O)CCNC(=O)c1ccccc1Br | – | active: 17.8 µM |
| COc1ccc(N=C2S/C(=C\c3ccc(N4CCOCC4)o3)C(=O)N2CCc2c[nH]c3ccccc23)cc1 | – | inconclusive [inhibitor, single point] |
| Cc1nc(-c2ccccc2)cn2c1nc1ccccc12 | – | inconclusive [inhibitor, partial curve] |

Reference: PubChem BioAssay AID894 (National Center for Advancing Translational Sciences (NCATS), 2007)
